This note sets out measurements from the supplement of paper PMC12217912.

B1: TEV protease; numbered along this chain (parent)
chain: MGESLFKGPRDYNPISSSICHLTNESDGHTTSLYGIGFGPFIITNKHLFRRNNGTLVVQSLHGVFKVKDTTTLQQHLVDGRDMIIIRMPKDFPPFPQKLKFREPQREERICLVTTNFQTKSMSSMVSDTSCTFPSGDGIFWKHWIQTKDGQCGSPLVSTRDGFIVGIHSASNFTNTNNYFTSVPKNFMELLTNQEAQQWVSGWRLNADSVLWGGHKVFMVKPEEPFQPVKEATQL

The list shows a part of the results. The full chains were built here from the parent and the listed change. Inactive controls read about 0.05.

Variants of B1 are the subject of the assay. Briefly: raw area under fraction-flipped curve 0-4 h after induction (AUC4h, not background-subtracted), DNA-recorder readout of cleavage of the substrate (dimensionless); higher = more cleavage of the substrate by the protease variant. To be noted: temperature: 34 °C; time window: 0-4 h after rhamnose induction. As for the experimental part: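 In vivo DNA recorder in E. coli TOP10(DE3) ΔrhaA at 34 °C. Each TEVp single-site mutant (parent TEVp 0) is paired with a single-site variant of the 7-mer TEVs (canonical ENLYFQ|S). The substrate sits between flexible linkers in a Bxb1-sfGFP-TEVs-SsrA fusion, so cleavage stabilises Bxb1 and speeds flipping of a recombination array, read by NGS. The value is the raw area under the fraction-flipped curve over 0-4 h after rhamnose induction (AUC4h), with ≥20 reads per time point. It is not background-subtracted; inactive controls average about 0.047.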
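Further: Bxb1 expression induced with 0.2% (w/v) L-rhamnose at OD600 near 0.5, cultures sampled hourly, flipped fraction per protease–substrate barcode pair counted by paired-end Illumina sequencing.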

Take MGESLFKGPRDYNPISSSICHLTNESDGHTTSLYPIGFGPFIITNKHLFRRNNGTLVVQSLHGVFKVKDTTTLQQHLVDGRDMIIIRMPKDFPPFPQKLKFREPQREERICLVTTNFQTKSMSSMVSDTSCTFPSGDGIFWKHWIQTKDGQCGSPLVSTRDGFIVGIHSASNFTNTNNYFTSVPKNFMELLTNQEAQQWVSGWRLNADSVLWGGHKVFMVKPEEPFQPVKEATQL [G35P]: the “area with substrate ENLCFQS” value is 0.0483, the “area with substrate ENLDFQS” value is 0.0351, the “area with substrate ENLEFQS” value stood at 0.0505 and the “area with substrate ENLKFQS” value was determined as 0.0453. Moreover, the “area with substrate ENLNFQS” value is 0.0426 and the “area with substrate ENLRFQS” value was found to be 0.0603.

Consider MGESLFKGPRDYNPISSSICHLTNESDGHTTSLYGIGFGPFIITNKHLFRRNNGTLVVQSKHGVFKVKDTTTLQQHLVDGRDMIIIRMPKDFPPFPQKLKFREPQREERICLVTTNFQTKSMSSMVSDTSCTFPSGDGIFWKHWIQTKDGQCGSPLVSTRDGFIVGIHSASNFTNTNNYFTSVPKNFMELLTNQEAQQWVSGWRLNADSVLWGGHKVFMVKPEEPFQPVKEATQL [L61K], for which the “area with substrate ENLCFQS” value came to 0.0736, the “area with substrate ENLDFQS” value amounted to 0.051, the “area with substrate ENLEFQS” value is 0.0717 and the “area with substrate ENLGFQS” value is 0.0626. Besides, the “area with substrate ENLHFQS” value came to 0.0758, the “area with substrate ENLKFQS” value amounted to 0.0776, the “area with substrate ENLNFQS” value was 0.0674 and the “area with substrate ENLRFQS” value was 0.0507. Also, the “area with substrate ENLSFQS” value was determined as 0.0412.

In the case of MGESLFKGPRDYNPISSSICHLTNESDGHTTSLFGIGFGPFIITNKHLFRRNNGTLVVQSLHGVFKVKDTTTLQQHLVDGRDMIIIRMPKDFPPFPQKLKFREPQREERICLVTTNFQTKSMSSMVSDTSCTFPSGDGIFWKHWIQTKDGQCGSPLVSTRDGFIVGIHSASNFTNTNNYFTSVPKNFMELLTNQEAQQWVSGWRLNADSVLWGGHKVFMVKPEEPFQPVKEATQL [Y34F], the “area with substrate ENLCFQS” value was found to be 0.0613, the “area with substrate ENLDFQS” value stood at 0.0568, the “area with substrate ENLEFQS” value worked out at 0.0545 and the “area with substrate ENLFFQS” value came to 0.0759. Also, the “area with substrate ENLHFQS” value came to 0.0676, the “area with substrate ENLKFQS” value is 0.0784, the “area with substrate ENLMFQS” value was found to be 0.0802 and the “area with substrate ENLNFQS” value turned out to be 0.0777. The “area with substrate ENLPFQS” value was 0.0581, the “area with substrate ENLSFQS” value was 0.0631, the “area with substrate ENLTFQS” value was 0.127 and the “area with substrate ENLVFQS” value worked out at 0.0796. Moreover, the “area with substrate ENLWFQS” value came to 0.0776.

In the case of MGESLFKGPRDYNPISSSICHLTNESDGHTTSLIGIGFGPFIITNKHLFRRNNGTLVVQSLHGVFKVKDTTTLQQHLVDGRDMIIIRMPKDFPPFPQKLKFREPQREERICLVTTNFQTKSMSSMVSDTSCTFPSGDGIFWKHWIQTKDGQCGSPLVSTRDGFIVGIHSASNFTNTNNYFTSVPKNFMELLTNQEAQQWVSGWRLNADSVLWGGHKVFMVKPEEPFQPVKEATQL [Y34I], the “area with substrate ENLCFQS” value is 0.0611, the “area with substrate ENLDFQS” value stood at 0.0435, the “area with substrate ENLFFQS” value stood at 0.0775 and the “area with substrate ENLNFQS” value was 0.0768. Further, the “area with substrate ENLPFQS” value came out at 0.0642 and the “area with substrate ENLSFQS” value was 0.0635.

Take MGESLFKGPRDYNPISSSICHLTNESDGHTTSLYGIGFGPFIITNKHLFRRNNGTLVVQSLMGVFKVKDTTTLQQHLVDGRDMIIIRMPKDFPPFPQKLKFREPQREERICLVTTNFQTKSMSSMVSDTSCTFPSGDGIFWKHWIQTKDGQCGSPLVSTRDGFIVGIHSASNFTNTNNYFTSVPKNFMELLTNQEAQQWVSGWRLNADSVLWGGHKVFMVKPEEPFQPVKEATQL [H62M]: the “area with substrate ENLCFQS” value was 0.0576, the “area with substrate ENLDFQS” value came to 0.0989, the “area with substrate ENLEFQS” value is 0.0578 and the “area with substrate ENLFFQS” value came to 0.0857. Moreover, the “area with substrate ENLHFQS” value turned out to be 0.0861, the “area with substrate ENLIFQS” value was 0.0853, the “area with substrate ENLKFQS” value came to 0.0685 and the “area with substrate ENLNFQS” value came to 0.0522. Also, the “area with substrate ENLQFQS” value is 0.0641 and the “area with substrate ENLWFQS” value was 0.0757.

For the variant MGESLFKGPRDYNPISSSICHLTNESDGHTTSLYGIGFGPFIITNKHLFRRNNGTLVVQSLHGVFIVKDTTTLQQHLVDGRDMIIIRMPKDFPPFPQKLKFREPQREERICLVTTNFQTKSMSSMVSDTSCTFPSGDGIFWKHWIQTKDGQCGSPLVSTRDGFIVGIHSASNFTNTNNYFTSVPKNFMELLTNQEAQQWVSGWRLNADSVLWGGHKVFMVKPEEPFQPVKEATQL [K66I], the “area with substrate ENLCFQS” value is 0.0779, the “area with substrate ENLEFQS” value was determined as 0.069, the “area with substrate ENLFFQS” value is 0.0931 and the “area with substrate ENLHFQS” value was 0.0838. Further, the “area with substrate ENLLFQS” value was determined as 0.0824, the “area with substrate ENLNFQS” value was 0.0701, the “area with substrate ENLSFQS” value is 0.0733 and the “area with substrate ENLWFQS” value stood at 0.0403.

Regarding MGESLFKGPRDYNPISSSICHLTNESDGHTTSLYGIGFGPFIITNKHLFRRNIGTLVVQSLHGVFKVKDTTTLQQHLVDGRDMIIIRMPKDFPPFPQKLKFREPQREERICLVTTNFQTKSMSSMVSDTSCTFPSGDGIFWKHWIQTKDGQCGSPLVSTRDGFIVGIHSASNFTNTNNYFTSVPKNFMELLTNQEAQQWVSGWRLNADSVLWGGHKVFMVKPEEPFQPVKEATQL [N53I], the “area with substrate ENLCFQS” value amounted to 0.0635, the “area with substrate ENLDFQS” value was 0.0514, the “area with substrate ENLEFQS” value was found to be 0.0666 and the “area with substrate ENLFFQS” value was 0.0656. The “area with substrate ENLHFQS” value was found to be 0.062, the “area with substrate ENLKFQS” value turned out to be 0.0679, the “area with substrate ENLNFQS” value worked out at 0.0589 and the “area with substrate ENLPFQS” value was 0.0636. For the same variant, the “area with substrate ENLQFQS” value was 0.0658, the “area with substrate ENLRFQS” value was found to be 0.0647, the “area with substrate ENLSFQS” value was 0.0658 and the “area with substrate ENLVFQS” value came to 0.0647.

Regarding MGESLFKGPRDYNPISSSICHLTNESDGHTTSLYGIGFGPFIITNQHLFRRNNGTLVVQSLHGVFKVKDTTTLQQHLVDGRDMIIIRMPKDFPPFPQKLKFREPQREERICLVTTNFQTKSMSSMVSDTSCTFPSGDGIFWKHWIQTKDGQCGSPLVSTRDGFIVGIHSASNFTNTNNYFTSVPKNFMELLTNQEAQQWVSGWRLNADSVLWGGHKVFMVKPEEPFQPVKEATQL [K46Q], the “area with substrate ENLCFQS” value stood at 0.0602, the “area with substrate ENLDFQS” value stood at 0.0605, the “area with substrate ENLEFQS” value is 0.064 and the “area with substrate ENLFFQS” value turned out to be 0.0546. Besides, the “area with substrate ENLGFQS” value worked out at 0.0633, the “area with substrate ENLIFQS” value turned out to be 0.0636, the “area with substrate ENLKFQS” value was found to be 0.0689 and the “area with substrate ENLLFQS” value worked out at 0.0709. Also, the “area with substrate ENLNFQS” value came to 0.0598, the “area with substrate ENLSFQS” value worked out at 0.051 and the “area with substrate ENLWFQS” value stood at 0.0557.

Turning to MGESLFKGPRDYNPISSSICHLTNESDGHTTSLYGIGFGPFIITNHHLFRRNNGTLVVQSLHGVFKVKDTTTLQQHLVDGRDMIIIRMPKDFPPFPQKLKFREPQREERICLVTTNFQTKSMSSMVSDTSCTFPSGDGIFWKHWIQTKDGQCGSPLVSTRDGFIVGIHSASNFTNTNNYFTSVPKNFMELLTNQEAQQWVSGWRLNADSVLWGGHKVFMVKPEEPFQPVKEATQL [K46H], the “area with substrate ENLCFQS” value is 0.062, the “area with substrate ENLDFQS” value amounted to 0.0677, the “area with substrate ENLEFQS” value was 0.0545 and the “area with substrate ENLGFQS” value stood at 0.0625. The “area with substrate ENLHFQS” value turned out to be 0.0712, the “area with substrate ENLIFQS” value came to 0.0587, the “area with substrate ENLKFQS” value stood at 0.0672 and the “area with substrate ENLLFQS” value was found to be 0.0589. The “area with substrate ENLNFQS” value was 0.0625, the “area with substrate ENLPFQS” value came to 0.0598, the “area with substrate ENLQFQS” value came out at 0.0565 and the “area with substrate ENLRFQS” value worked out at 0.0435. Further, the “area with substrate ENLSFQS” value was determined as 0.0627, the “area with substrate ENLVFQS” value was 0.061 and the “area with substrate ENLWFQS” value was 0.0484.

For MGESLFKGPRDYNPISSSICHLTNESDGHTTSLYGIGFGPFIITNKHLFRRNNGTLVVQSLHGVFKVKDTTTLQQSLVDGRDMIIIRMPKDFPPFPQKLKFREPQREERICLVTTNFQTKSMSSMVSDTSCTFPSGDGIFWKHWIQTKDGQCGSPLVSTRDGFIVGIHSASNFTNTNNYFTSVPKNFMELLTNQEAQQWVSGWRLNADSVLWGGHKVFMVKPEEPFQPVKEATQL [H76S], the “area with substrate ENLCFQS” value was 0.06, the “area with substrate ENLDFQS” value was found to be 0.0584, the “area with substrate ENLEFQS” value turned out to be 0.0634 and the “area with substrate ENLFFQS” value turned out to be 0.0888. In addition, the “area with substrate ENLHFQS” value came out at 0.0638, the “area with substrate ENLIFQS” value stood at 0.0784, the “area with substrate ENLKFQS” value came out at 0.0699 and the “area with substrate ENLMFQS” value was determined as 0.0616. The “area with substrate ENLNFQS” value is 0.0599, the “area with substrate ENLPFQS” value is 0.0594, the “area with substrate ENLRFQS” value was found to be 0.0703 and the “area with substrate ENLSFQS” value was 0.0325. Moreover, the “area with substrate ENLWFQS” value is 0.0645.
